In the supplement of paper PMC12217912:
The other results are listed elsewhere or left out. Sequences were assembled here from the parent chain. Values near 0.05 are background.

B1: TEV protease; numbered along this chain (parent)
chain: MGESLFKGPRDYNPISSSICHLTNESDGHTTSLYGIGFGPFIITNKHLFRRNNGTLVVQSLHGVFKVKDTTTLQQHLVDGRDMIIIRMPKDFPPFPQKLKFREPQREERICLVTTNFQTKSMSSMVSDTSCTFPSGDGIFWKHWIQTKDGQCGSPLVSTRDGFIVGIHSASNFTNTNNYFTSVPKNFMELLTNQEAQQWVSGWRLNADSVLWGGHKVFMVKPEEPFQPVKEATQL

Variants of: B1
Assay: raw area under fraction-flipped curve 0-4 h after induction (AUC4h, not background-subtracted), DNA-recorder readout of cleavage of the substrate (dimensionless); higher = more cleavage of the substrate by the protease variant
Conditions: temperature: 34 °C; time window: 0-4 h after rhamnose induction
Protocol: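 In vivo DNA recorder in E. coli TOP10(DE3) ΔrhaA at 34 °C. Each TEVp single-site mutant (parent TEVp 0) is paired with a single-site variant of the 7-mer TEVs (canonical ENLYFQ|S). The substrate sits between flexible linkers in a Bxb1-sfGFP-TEVs-SsrA fusion, so cleavage stabilises Bxb1 and speeds flipping of a recombination array, read by NGS. The value is the raw area under the fraction-flipped curve over 0-4 h after rhamnose induction (AUC4h), with ≥20 reads per time point. It is not background-subtracted; inactive controls average about 0.047.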
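Also: Bxb1 expression induced with 0.2% (w/v) L-rhamnose at OD600 near 0.5, cultures sampled hourly, flipped fraction per protease–substrate barcode pair counted by paired-end Illumina sequencing.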

| Variant | area with substrate ENAYFQS | area with substrate ENCYFQS | area with substrate ENDYFQS | area with substrate ENEYFQS | area with substrate ENFYFQS | area with substrate ENGYFQS | area with substrate ENKYFQS | area with substrate ENPYFQS | area with substrate ENQYFQS | area with substrate ENRYFQS | area with substrate ENSYFQS | area with substrate ENTYFQS | area with substrate ENVYFQS | area with substrate ENYYFQS | area with substrate ENHYFQS | area with substrate ENIYFQS | area with substrate ENMYFQS | area with substrate ENNYFQS | area with substrate ENWYFQS |
| --- | --- | --- | --- | --- | --- | --- | --- | --- | --- | --- | --- | --- | --- | --- | --- | --- | --- | --- | --- |
| L33H | 0.0499 | 0.0513 | 0.0599 | 0.0584 | 0.057 | 0.0556 | 0.063 | 0.0579 | 0.0617 | 0.0638 | 0.0686 | 0.0543 | 0.0595 | 0.0591 |  |  |  |  |  |
| L33R | 0.0632 |  | 0.0564 | 0.0622 | 0.0668 | 0.0645 | 0.0605 | 0.0493 | 0.0588 | 0.0462 | 0.0506 | 0.0488 | 0.0566 | 0.0524 | 0.0648 | 0.053 | 0.0527 |  |  |
| L33Y | 0.0511 | 0.0657 | 0.0614 | 0.0637 |  | 0.0592 |  |  | 0.0638 | 0.0701 | 0.063 |  | 0.0608 | 0.0591 |  |  |  | 0.0653 |  |
| C20L | 0.03 | 0.0627 | 0.0589 | 0.064 | 0.0525 | 0.0361 | 0.0535 | 0.051 | 0.0613 |  | 0.0659 | 0.0694 | 0.0832 |  | 0.0512 |  |  |  |  |
| C20W | 0.0428 |  | 0.0338 | 0.0483 | 0.0498 | 0.0386 |  | 0.0438 | 0.038 |  | 0.0502 | 0.0453 | 0.0409 | 0.0425 | 0.0485 |  | 0.0372 | 0.051 | 0.0427 |
| R10W | 0.0637 | 0.0756 | 0.0591 | 0.0538 | 0.0616 | 0.0605 | 0.0653 | 0.0615 | 0.0569 | 0.0649 | 0.0664 |  | 0.0853 |  | 0.0564 | 0.148 |  |  | 0.046 |
| R10D | 0.0603 | 0.0603 | 0.0732 | 0.0487 | 0.0718 | 0.0689 | 0.0543 | 0.0613 | 0.0547 | 0.0613 | 0.0603 | 0.057 | 0.0824 | 0.0569 | 0.0702 | 0.105 |  | 0.0639 | 0.0045 |
| P14K | 0.0552 |  | 0.0659 | 0.0803 |  |  | 0.0648 | 0.0502 | 0.0524 | 0.0636 | 0.0558 | 0.0329 | 0.0916 | 0.0669 | 0.0857 | 0.113 | 0.123 | 0.0601 |  |
| P14E | 0.0453 | 0.0728 | 0.0607 | 0.0539 |  | 0.0713 |  | 0.0665 | 0.0521 | 0.0567 | 0.0773 | 0.061 | 0.0869 | 0.0494 | 0.0712 | 0.113 | 0.0767 | 0.0665 | 0.0536 |
| P14H | 0.0596 | 0.072 |  | 0.0599 |  | 0.0492 | 0.0515 | 0.0501 | 0.0573 |  | 0.0616 |  |  | 0.0665 |  |  | 0.112 |  |  |
| T30R | 0.0666 | 0.0512 | 0.0595 | 0.0589 | 0.0663 |  | 0.0617 |  | 0.0565 | 0.0682 | 0.0516 |  | 0.0885 |  | 0.0644 | 0.0862 |  | 0.0574 | 0.0362 |
| H21V | 0.0493 | 0.0607 | 0.0583 | 0.0759 | 0.0558 | 0.0463 |  | 0.0579 | 0.0557 | 0.0616 | 0.0715 | 0.0615 | 0.0625 | 0.0567 | 0.0608 | 0.0994 | 0.0681 | 0.072 |  |
| E3F | 0.0605 |  | 0.0578 | 0.0713 | 0.0773 | 0.0476 |  | 0.0776 | 0.0682 | 0.0525 | 0.068 | 0.106 | 0.101 |  | 0.0562 | 0.147 | 0.0966 | 0.0546 |  |
| Y12M | 0.0386 |  | 0.0614 | 0.0769 | 0.0608 | 0.0629 |  |  | 0.0531 | 0.0623 |  | 0.0588 | 0.0862 | 0.055 | 0.0483 | 0.0737 | 0.0584 | 0.0391 |  |
| Y12N | 0.0585 | 0.0832 |  | 0.0485 | 0.0713 |  | 0.064 |  | 0.0456 | 0.0454 | 0.0599 | 0.0731 | 0.0722 |  |  | 0.0655 | 0.0559 |  |  |
| Y12C | 0.0494 | 0.0608 | 0.0765 | 0.0668 | 0.0671 | 0.0553 | 0.0765 | 0.0663 | 0.0629 | 0.0564 | 0.0634 | 0.0717 | 0.0793 |  |  | 0.115 | 0.0798 | 0.0601 | 0.0576 |
| S26R | 0.0527 |  | 0.0618 | 0.0519 | 0.0824 | 0.062 | 0.0505 | 0.0517 | 0.0573 | 0.072 | 0.0589 | 0.0665 | 0.0592 |  | 0.0629 | 0.0865 | 0.0687 | 0.0466 |  |
| S26Q | 0.0725 | 0.081 | 0.0531 | 0.05 | 0.055 | 0.0636 | 0.0577 | 0.0614 | 0.0714 | 0.0521 | 0.074 | 0.0611 | 0.0693 | 0.074 | 0.0676 | 0.0842 | 0.0661 | 0.0602 | 0.0569 |
| D27S | 0.0542 | 0.0571 | 0.0606 |  | 0.0576 | 0.0679 | 0.0711 | 0.0735 |  | 0.0525 | 0.0596 |  | 0.072 | 0.049 | 0.0596 |  | 0.0607 | 0.06 |  |
| D27G | 0.0495 | 0.0729 | 0.0599 | 0.06 | 0.0684 |  |  |  | 0.0622 | 0.0602 | 0.057 |  | 0.0697 |  | 0.0514 | 0.076 | 0.0919 |  |  |
| S17P | 0.0596 |  | 0.0639 | 0.0555 | 0.0556 | 0.0458 | 0.0527 | 0.0712 | 0.0595 | 0.0483 | 0.0599 | 0.0598 | 0.0759 |  | 0.0539 | 0.0929 |  | 0.0395 |  |
| S4I | 0.0596 | 0.0733 | 0.0627 | 0.0678 | 0.0566 | 0.0265 | 0.0683 |  | 0.0564 |  |  | 0.0567 |  | 0.0684 | 0.0566 |  | 0.0736 | 0.0613 | 0.0358 |
| S18Q | 0.0418 | 0.0633 | 0.0601 | 0.0603 | 0.0642 | 0.0577 |  | 0.0558 |  | 0.044 | 0.0571 | 0.0616 | 0.106 |  |  |  | 0.0932 | 0.0751 |  |
| L5P | 0.062 |  | 0.0644 |  |  |  |  | 0.0496 | 0.0616 |  |  |  |  |  |  | 0.0501 |  |  |  |
